Measured values: the supplement of paper PMC3334620
Whole data set: some 33,000 sequences, median “E-score (-0.5 to 0.5)” near -0.04, cut for the highest 2% near 0.36. Some of the results follow.

Each sequence was assayed against T1, Hmlalpha2 (UniProt P0CY09) (assay: PBM E-score (8-mer binding enrichment) (E-score (-0.5 to 0.5)); higher = stronger / more preferred TF binding; most listed sequences are background and not binding sites). Settings: protein concentration: 200 nM; construct: GST-full length.
T1 sequence: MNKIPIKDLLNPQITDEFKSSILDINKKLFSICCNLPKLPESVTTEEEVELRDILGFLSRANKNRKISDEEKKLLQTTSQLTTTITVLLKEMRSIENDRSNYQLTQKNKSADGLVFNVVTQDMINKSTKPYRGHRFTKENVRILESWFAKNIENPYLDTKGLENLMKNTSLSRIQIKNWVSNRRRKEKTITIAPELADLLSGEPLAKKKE
Outline: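 Using PURExpress in vitro transcription/translation, GST-tagged yeast transcription factors were made in full-length or DNA-binding-domain form. These were applied at about 100-200 nM to double-stranded universal all-10-mer Agilent arrays, and bound protein was detected with fluorescent anti-GST. Scans were normalised with masliner before the Universal PBM Analysis Suite assigned E-scores to ungapped eight-base words pooled with their reverse complements.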

Row | Sequence | PBM E-score
1 | CGCTCTCA | -0.165
2 | TACGTTGA | 0.266
3 | TAGTGTCA | 0.0999
4 | AGAATCCT | -0.161
5 | AGCTTCAA | 0.0171
6 | TCCCGGAA | -0.207
7 | ATTCACCC | -0.215
8 | ATTTTAAC | 0.313
9 | AAGACAGC | -0.0479
10 | GAAATCGA | -0.169
11 | CCCTTCGA | -0.27
12 | AGAACTCC | -0.137
13 | GAGGTTGC | -0.183
14 | GTGGGGTA | -0.102
15 | ACTCGTTG | 0.134
16 | AACATGAA | 0.397
17 | TGTTCGAA | 0.147
18 | AAGCAATC | 0.00849
19 | AAAGTAGC | -0.161
20 | ACTCTGTA | 0.204
21 | ATGACGGG | -0.102
22 | CATGGAAG | 0.015
23 | AACCCCCT | -0.179
24 | CGTTATCA | 0.187

Row | Sequence | PBM E-score
25 | TACAGTAA | 0.201
26 | CTTATGAA | 0.0396
27 | AAGTTTTA | 0.213
28 | GTTCGAAA | 0.0864
29 | ATAGGTTC | 0.023
30 | TGGCCCCA | -0.327
31 | CCTAAGAG | -0.136
32 | ACTTGGGC | -0.278
33 | AGAGAACC | -0.234
34 | GAATTCCA | -0.0553
35 | AAATCTTC | 0.0872
36 | AGTCACGC | -0.202
37 | CCGATCGA | -0.125
38 | ACCTGCCT | -0.147
39 | CTAGATAG | 0.0174
40 | ATACGGAA | 0.0413
41 | TCCCAGGA | -0.361
42 | GATAGAAA | -0.0893
43 | ACCGCGAC | -0.0174
44 | CCGTAGAA | -0.0337
45 | GGACGCTA | -0.091
46 | AAGCTTGC | -0.0359
47 | GGCCCATA | -0.146
48 | CCCGGTCC | -0.383

Row | Sequence | PBM E-score
49 | AGAAAATA | -0.04
50 | CACGTGGG | -0.103
51 | AAAAATAA | 0.131
52 | TTAAGAAA | 0.137
53 | GCTCAAGC | -0.236
54 | ATTCCCGG | 0.0259
55 | CGGCAGTA | -0.297
56 | AGGTAGAG | 0.079
57 | ACAGCGAC | -0.15
58 | ATGCGCGC | 0.108
59 | ACTTAAAA | 0.193
60 | GTTATCGA | 0.0323
61 | ACGGTTGC | -0.0543
62 | AAGGGGCC | -0.273
63 | CGGCTATC | -0.192
64 | CTGGCCAA | -0.0171
65 | CCCATAGG | -0.23
66 | CACATTCC | 0.0026
67 | CCTTGGCA | -0.285
68 | GTATCAAA | 0.176
69 | AAGCCCTA | 0.0656
70 | CCCTGCAA | -0.124
71 | CTTAACAC | 0.419
72 | ACGGGAGT | -0.0916

Row | Sequence | PBM E-score
73 | AGTTATTG | 0.105
74 | CACCTCGC | -0.276
75 | CAAGCGTA | 0.231
76 | AACTATTC | -0.0344
77 | ATCTTTTC | 0.038
78 | TGTGGAAA | 0.174
79 | GGTGGTCA | -0.279
80 | ACTCCACC | -0.158
81 | AGGCAGAG | -0.147
82 | ATTCCCGC | -0.0624
83 | CCCGCTGA | -0.28
84 | CCCTATTC | -0.322
85 | AGGAGCCG | -0.281
86 | AGAGAACA | 0.174
87 | ACATAGCC | 0.231
88 | CCAACACC | -0.206
89 | AAAACTCC | -0.134
90 | AAAGTGTG | 0.124
91 | GTCGTAAA | 0.244
92 | AGAACAAT | 0.223
93 | CGTATAGC | 0.135
94 | ATTGGGAG | -0.0721
